Reference: patent publication US20210317454A1, “USE OF A TLR9 AGONIST IN METHODS FOR TREATING COVID-19” (priority 2020, published 2021)

Test system: SARS-CoV2
Conditions: hypothesized

## tilsotolimod: phosphorothioate oligonucleotide agonist of TLR9, sequence 5LTCG1AACG1TTCG1-X-G1CTTG1CAAG1CT-5′, X glycerol linker, G1 2′-deoxy-7-deazaguanosine (SEQ ID NO. 1) (DNA TCGAACGTTCGGCTTGCAAGCT; phosphorothioate, 7-deazaG, glycerol-linked 3'-3' dimer; (3)..(3) 2′-deoxy-7-deazaguanosine; (7)..(7) 2′-deoxy-7-deazaguanosine; (11)..(12) Linked by is a glycerol linker; (11)..(11) 2′-deoxy-7-deazaguanosine; (12)..(12) 2′-deoxy-7-deazaguanosine; (16)..(16) 2′-deoxy-7-deazaguanosine; (20)..(20) 2′-deoxy-7-deazaguanosine)
  duration of SARS-CoV2 viral infection: will shorten the duration of the SARS-CoV2 viral infection
